These are yes or no findings as the source states them, for the method shown. In cells and extracts the contact can be indirect. Some binding calls cover weakened binding; strength is not graded here.
What was measured:
Assay in all cases: pull-down; purified GST-importin bound to Glutathione Sepharose 4B, incubated with whole cell extracts of HEK293T cells expressing HA-PARP-2; 50 mM Tris pH 8.0, 150 mM NaCl, 0.5% NP-40, 0.5 mM DTT; western blot with anti-HA; only the target purified
[1] = target: GST-importin α3 (human) (UniProt O00629)
[2] = target: GST-importin α5 (human) (UniProt P52294)
[3] = target: GST-importin α7 (human) (UniProt O60684)

Chains of the proteins cited; added tags and fusions are not shown. Lines headed by an entry give the natural chain unless they say otherwise; changes in a name come on top. A line that says so, or that is headed by a name, gives the form on record, which may keep a tag or linker.
UniProt O00629: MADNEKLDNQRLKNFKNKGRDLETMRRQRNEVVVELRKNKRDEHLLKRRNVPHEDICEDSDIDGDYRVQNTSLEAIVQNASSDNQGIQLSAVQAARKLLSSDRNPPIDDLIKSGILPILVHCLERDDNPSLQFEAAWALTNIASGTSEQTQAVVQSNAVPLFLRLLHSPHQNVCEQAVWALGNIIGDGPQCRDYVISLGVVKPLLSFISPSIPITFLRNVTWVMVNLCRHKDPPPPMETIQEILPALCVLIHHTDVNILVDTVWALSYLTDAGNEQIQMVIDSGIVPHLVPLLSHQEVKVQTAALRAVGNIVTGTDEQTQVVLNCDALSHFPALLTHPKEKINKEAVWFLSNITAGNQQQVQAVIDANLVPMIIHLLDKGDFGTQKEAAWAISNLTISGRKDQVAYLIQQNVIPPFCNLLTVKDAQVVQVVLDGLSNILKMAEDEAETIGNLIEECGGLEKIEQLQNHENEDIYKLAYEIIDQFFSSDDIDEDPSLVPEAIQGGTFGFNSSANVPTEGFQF
UniProt P52294: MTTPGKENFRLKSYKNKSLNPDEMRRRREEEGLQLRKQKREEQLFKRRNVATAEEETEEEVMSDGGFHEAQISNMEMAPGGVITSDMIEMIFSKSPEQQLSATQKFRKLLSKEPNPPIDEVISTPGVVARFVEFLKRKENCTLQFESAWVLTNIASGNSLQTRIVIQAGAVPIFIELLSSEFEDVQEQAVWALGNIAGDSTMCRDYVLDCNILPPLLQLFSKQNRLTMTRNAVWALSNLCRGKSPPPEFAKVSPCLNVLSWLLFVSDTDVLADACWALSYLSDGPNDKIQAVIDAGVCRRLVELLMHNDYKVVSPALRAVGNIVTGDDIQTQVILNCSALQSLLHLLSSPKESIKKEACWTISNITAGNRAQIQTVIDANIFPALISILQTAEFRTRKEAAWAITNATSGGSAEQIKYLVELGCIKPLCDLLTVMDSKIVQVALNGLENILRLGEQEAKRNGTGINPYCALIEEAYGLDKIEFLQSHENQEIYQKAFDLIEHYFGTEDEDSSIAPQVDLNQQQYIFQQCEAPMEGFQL
UniProt O88554: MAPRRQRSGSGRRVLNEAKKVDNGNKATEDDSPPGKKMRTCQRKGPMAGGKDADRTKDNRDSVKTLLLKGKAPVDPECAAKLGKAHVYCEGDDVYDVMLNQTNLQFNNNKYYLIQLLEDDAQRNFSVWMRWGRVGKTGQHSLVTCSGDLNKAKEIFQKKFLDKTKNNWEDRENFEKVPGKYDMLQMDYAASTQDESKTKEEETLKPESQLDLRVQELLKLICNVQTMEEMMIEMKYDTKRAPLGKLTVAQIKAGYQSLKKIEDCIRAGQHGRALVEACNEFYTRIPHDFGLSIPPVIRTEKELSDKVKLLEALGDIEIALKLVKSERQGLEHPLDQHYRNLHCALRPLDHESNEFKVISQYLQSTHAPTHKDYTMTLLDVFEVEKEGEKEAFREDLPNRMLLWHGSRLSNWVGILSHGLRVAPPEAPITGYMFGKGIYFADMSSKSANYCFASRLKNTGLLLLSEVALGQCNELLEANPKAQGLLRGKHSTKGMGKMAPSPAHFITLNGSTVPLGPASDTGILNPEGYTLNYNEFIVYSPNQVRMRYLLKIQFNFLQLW
HA-tagged PARP-2 K36/37R (O88554, form named): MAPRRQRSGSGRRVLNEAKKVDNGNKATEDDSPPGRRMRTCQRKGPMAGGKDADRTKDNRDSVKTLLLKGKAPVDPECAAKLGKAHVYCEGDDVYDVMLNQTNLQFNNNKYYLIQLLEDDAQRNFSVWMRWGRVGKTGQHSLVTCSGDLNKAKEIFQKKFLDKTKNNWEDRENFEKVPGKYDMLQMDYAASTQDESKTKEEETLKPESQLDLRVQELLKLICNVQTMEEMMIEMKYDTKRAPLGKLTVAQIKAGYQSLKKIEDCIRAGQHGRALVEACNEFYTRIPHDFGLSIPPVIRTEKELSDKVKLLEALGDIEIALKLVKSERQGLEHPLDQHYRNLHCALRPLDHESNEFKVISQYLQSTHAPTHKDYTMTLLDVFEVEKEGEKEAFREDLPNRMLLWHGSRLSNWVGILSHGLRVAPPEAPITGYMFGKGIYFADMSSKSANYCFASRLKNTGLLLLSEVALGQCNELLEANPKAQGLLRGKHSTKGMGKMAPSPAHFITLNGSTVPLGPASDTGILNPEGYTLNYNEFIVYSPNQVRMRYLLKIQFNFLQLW

Substance	binding [1]	binding [2]	binding [3]
HA-tagged PARP-2 K36/37R (from UniProt O88554 1-559)	no binding	–	–
HA-tagged PARP-2 K36R (from UniProt O88554 1-559)	no binding	–	–
HA-tagged PARP-2 K37R (from UniProt O88554 1-559)	binds	–	–
HA-tagged wild type PARP-2 (from UniProt O88554 1-559)	binds	binds weakly	no binding

From paper PMC2496901
